# Assay results published in PMC6919601, “Identification of Plasmodium dipeptidyl aminopeptidase allosteric inhibitors by high throughput screening” (PLoS ONE, 2019).
# The whole screen tested about 110,000 compounds, of which about 230 (0.21%) showed an effect of 50% or more. This is one part of the list.
# Target: DPAP1 (Plasmodium falciparum, UniProt Q8IIJ9)
# Experiment: primary screen, percent inhibition; read by cleavage of a fluorogenic dipeptide substrate; higher = more effect of the substance
# Set-up: species or system P. falciparum D10 trophozoite lysates; single well
# 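Also: 30 min substrate incubation versus DMSO and 10 µM JCP410 controls.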
# Chain of DPAP1 (Q8IIJ9 whole entry, looked up): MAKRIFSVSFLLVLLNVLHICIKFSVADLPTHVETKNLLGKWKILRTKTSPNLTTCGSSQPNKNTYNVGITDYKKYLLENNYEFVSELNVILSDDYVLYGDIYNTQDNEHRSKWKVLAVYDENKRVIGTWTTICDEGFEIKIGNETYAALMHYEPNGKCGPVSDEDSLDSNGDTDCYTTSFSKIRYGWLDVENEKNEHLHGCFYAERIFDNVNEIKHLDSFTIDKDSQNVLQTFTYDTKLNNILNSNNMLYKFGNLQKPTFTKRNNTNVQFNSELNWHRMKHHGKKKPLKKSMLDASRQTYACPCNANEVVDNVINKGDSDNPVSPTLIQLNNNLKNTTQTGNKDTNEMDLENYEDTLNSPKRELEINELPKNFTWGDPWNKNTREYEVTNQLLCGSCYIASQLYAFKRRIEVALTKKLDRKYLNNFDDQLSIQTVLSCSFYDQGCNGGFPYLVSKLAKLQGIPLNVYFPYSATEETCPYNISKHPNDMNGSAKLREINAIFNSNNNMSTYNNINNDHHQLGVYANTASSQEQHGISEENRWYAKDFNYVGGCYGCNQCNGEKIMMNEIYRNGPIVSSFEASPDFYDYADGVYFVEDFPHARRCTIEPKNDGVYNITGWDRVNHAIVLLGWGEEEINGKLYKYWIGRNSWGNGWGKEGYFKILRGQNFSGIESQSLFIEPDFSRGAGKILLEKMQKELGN
row,Structure (SMILES),% Inhibition @ 10 uM [%]
1,C=CCn1c(C)nc2c(sc3nc4c(cc32)COC(C)(C)C4)c1=O,7.09
2,CC1CCc2c(sc(NC(=O)C(C(F)(F)F)C(F)(F)F)c2C#N)C1 (stereo not drawn),-3.46
3,CCOC(=O)c1c(N)sc(C(=O)N2CCc3ccccc3C2)c1C,-2.87
4,Cc1ncc2c(c1O)COC(C(C)C)OC2 (stereo not drawn),-3.53
5,CS(=O)(=O)c1ccc2nc(NS(=O)(=O)c3ccc(F)cc3)sc2c1,3.42
6,O=C(NCc1ccc2c(c1)OCO2)c1cccc(C(=O)NCc2ccc3c(c2)OCO3)c1,9.65
7,COc1ccc(CNC(=O)c2ccc(C(C)C)cc2)cc1,-1.61
8,CN(C)C(=O)CSC(c1ccccc1)c1ccccc1,2.51
9,CCOc1ccc(NC(=O)CSc2nc3ccc(OCC)cc3cc2C#N)cc1,-0.413
10,Cc1cccc(C(=O)N/C(=C/c2ccco2)C(=O)O)c1,-4.7
11,Cc1ccc(CN(C(=O)c2cccs2)C2CCS(=O)(=O)C2)o1 (stereo not drawn),-2.85
12,COc1ccc(Cc2nnc(NC(=O)c3c(-c4ccccc4)noc3C)s2)cc1OC,3.12
13,COC(=O)c1ccccc1NC(=O)C(C)Oc1ccc(C)cc1 (stereo not drawn),2.48
14,O=C(O)CC(c1ccccc1)n1cccc1 (stereo not drawn),1.03
15,CC(=O)N1CCN(c2cc(N3CCOCC3)c(F)cc2[N+](=O)[O-])CC1,-4.93
16,CCOC(=O)c1c(C)nc2nn3c4c(nnc3c2c1-c1ccc(OC)cc1)C(=O)CC(C)(C)C4,5.02
17,c1ccc(-c2cnc(-c3ccc(-c4cnc(-c5ccccc5)o4)cc3)o2)cc1,1.66
18,CCOCCCNCc1c(C(=O)O)c(C)n(Cc2ccc(F)cc2)c1C,2.99
19,CN1CC[C@@](O)(c2ccccc2)[C@@H]2CCC[C@@H]21,-2.56
20,CCOC(=O)c1cc(NC(=O)N(Cc2ccco2)C2CCCCC2)c(C)nc1C,2.62
21,CNC(=S)NCCc1c(C)[nH]c2ccc(Cl)cc12,2.85

row,Structure (SMILES),% Inhibition @ 10 uM [%]
1,O=c1c2c(-c3ccccc3)csc2nc2c3ccccc3c(NCCCN3CCOCC3)nn12,12.2
2,Oc1nnc(-c2ccc(F)cc2)c2c1Nc1nnnn1C2c1ccccc1 (stereo not drawn),3.66
3,COc1ccc(-c2nc3ccccc3[nH]2)c(OC)c1OC,-8.06
4,O=C(NCCNC(=O)c1ccco1)c1ccco1,-3.65
5,CC(C)(CNC(=O)C1CCCC1)CNC(=O)C1CCCC1,-0.116
6,Cc1ccc2c(N)c(C(=O)N(c3ccccc3)c3ccccc3)sc2n1,-1.38
7,COc1ccc2ccccc2c1CNc1ccc2c(c1)CCC2,4.28
8,C=CCOc1ccc(/C=C2/N=C(C)C(C(=O)OCC)=C2O)cc1OC,-3.09
9,CCN(CC)C(=O)C1CCCN(CCC(C)c2ccccc2)C1 (stereo not drawn),-5.26
10,CCc1nc2cccnc2n1-c1ccc(CC(=O)N2CCCCCC2)cc1,1.81
11,CC(C)c1ccc(C2C(C(=O)c3ccc(F)cc3)=C(O)C(=O)N2CCCCCC(=O)O)cc1 (stereo not drawn),-0.178
12,C=CCn1c(SCC(=O)NCC2CCCO2)nc2scc(-c3ccc(C)o3)c2c1=O (stereo not drawn),2.38
13,CCOc1ccccc1/C=c1\sc2nnc(-c3ccccc3Cl)n2c1=O,3.25
14,C=CCNC(=O)CN(c1ccc(F)cc1)S(=O)(=O)c1ccc(C)cc1,-2.05
15,COc1ccccc1N1CCN(C(=O)C(c2ccccc2)c2ccccc2)CC1,2.23
16,CCCCNC(=O)C(CC)n1c(SCc2cccc(F)c2)nc2ccncc21 (stereo not drawn),1.03
17,Cc1cccc(-n2cnc3cc(C(=O)NCC4CCCO4)ccc32)c1 (stereo not drawn),-7.57
18,CC1(C)CC(=O)C2=C(C1)N(Cc1ccco1)C(=O)C2(Nc1nc2ccccc2s1)C(F)(F)F (stereo not drawn),-1.52
19,Cc1ccc(S(=O)(=O)Nc2ccc3c(c2)nc(C)n3Cc2ccccc2)cc1,-0.67
20,CC1Oc2ccccc2C=C1/C=C(\NC(=O)c1ccc(Cl)cc1)C(=O)NCc1ccco1 (stereo not drawn),-1.47
21,CCN(CC)CCCNC(=O)Cn1cnc2c(nc3n2CCCCC3)c1=O,5.92

row,Structure (SMILES),% Inhibition @ 10 uM [%]
1,COC(=O)C1C(c2ccc([N+](=O)[O-])cc2)NC(c2ccc([N+](=O)[O-])cc2)C(C(=O)OC)S1(=O)=O (stereo not drawn),1.27
2,O=C(NCc1cccnc1)c1[nH]c2ccccc2c1Sc1ccc(Cl)cc1,-8.95
3,CCOC(=O)c1c(NC(=O)c2nccnc2C(=O)O)sc2c1CCCC2,15.7
4,C/C(=C\C=C\c1ccccc1)C(=O)c1c(C)cc(C)nc1O,20.2
5,COCCCNC(=O)c1ccc(CS(=O)(=O)c2ccc(OC)cc2)o1,-1.28
6,Cn1c(=O)c2c(n3c4ccccc4nc13)NC(=O)CC2c1ccccc1C(F)(F)F (stereo not drawn),1.76
7,CCOc1ccc(-n2cc(-c3ccccc3)c3c(O)ncnc32)cc1,3.59
8,COc1ccccc1OCc1ccc(C(=O)Nc2ccncc2)o1,6.82
9,C=CCN1C(=O)S/C(=C\c2ccc(OC)c(Cl)c2)C1=O,-3.26
10,COc1ccc(Cl)cc1N(CC(=O)NCc1cccnc1)S(C)(=O)=O,21.7
11,CC(C)(CNC(=O)c1ccc(Cl)cc1)CNC(=O)c1ccc(Cl)cc1,0.173
12,Cc1sc2nc3c4ccccc4c(N4CCCCC4)nn3c(=O)c2c1C,-1.36
13,CCN1CCN(S(=O)(=O)c2csc(C(N)=O)c2)CC1,0.0244
14,CC1CN(c2ccc(N(C)C)cc2)C(=O)NC1=O (stereo not drawn),9.62
15,COc1cccc2c1Oc1ncccc1N(C(=O)CCC(=O)NCc1ccc3c(c1)OCO3)C2,-7.46
16,COc1ccc(CCNC(=O)c2cc(S(=O)(=O)N3CCCC3)cn2C)cc1OC,3.61
17,c1cc2c(cc1NC1CCCCCC1)OCO2,-1.82
18,Cn1ncc2c(=O)n(Cc3ccccc3Cl)cnc21,2.33
19,O=C(NCC1CCCO1)C1CCN(c2ncnc3c2nc2n3CCCCC2)CC1 (stereo not drawn),8.23
20,O=C1C2CCCCC2C(=O)N1c1ccc(Cl)cc1O (stereo not drawn),-4.65
21,O=C(c1csc2ccccc12)N1CCN(c2ccccc2F)CC1,3.56
